Data on 98 compounds can be found in PubChem BioAssay AID1956 (SRMLSC, 2009).

The list shows a part of the results. The main result of the screen is listed elsewhere. These columns were measured beside it and carry no call.

The viability is a read-out of living cells in per cent, often relative to untreated cells.

The test is described as follows: compounds boosting herpes simplex virus growth – fold increase, host cell viability (AID 1956). Note: tested in PC3 cells. Particulars: HSV replication augmentation in cells; fold increase: measured here: primary screen fold increase 10 uM, at 10 µM, stronger effect = higher value; viability: measured here: host cell viability series, at 25 µM, stronger effect = lower value.
For `CCOC(=O)c1nnsc1-c1ccc(-c2snnc2C(=O)OCC)cc1`, the fold increase came to 1.41 and the viability worked out at 99.6%.
In the case of `COc1ccccc1NC(=O)c1ccc(C)s1`, the fold increase amounted to 1.47 and the viability was 93.8%.
In the same order, the values of `O=C(O)c1cc(-c2ccc(/C=C3/SC(=S)N(Cc4ccccc4)C3=O)o2)ccc1Cl` are 1.89 and 92.1%.
In the same order, the values of `CCN(CC)c1ccc2cc(-c3nc4ccccc4[nH]3)c(=O)oc2c1` are 7.07 and 83.6%.
Turning to `c1ccc2c(c1)NCCS2`, the fold increase worked out at 2.04 and the viability turned out to be 97.1%.
Taken in the same sequence, the figures for `CN1C(=O)CC(c2ccco2)Sc2ccccc21` (configuration not stated) were 1.51 and 78.8%.
In the case of `Cn1c(C(=O)Nc2ccc3c(c2)OCCO3)cc2c(=O)n(C)c3ccccc3c21`, the fold increase came to 1.33 and the viability was determined as 77.3%.
Turning to `COC(=O)C[n+]1cccc2ccccc21`, the fold increase was 2.07 and the viability worked out at 105%.
Taken in the same sequence, the figures for `CC(=O)Nc1ccc(C(=O)Cn2nnc3ccccc3c2=O)cc1` were 1.35 and 94.8%.
Consider `O=C(CSc1nc2ccccc2s1)NNC(=S)Nc1ccc(Cl)cc1`, for which the fold increase is 1.35.
Regarding `CN(C)C(=N)c1n[nH]nc1SCc1ccc(Cl)c(Cl)c1`, the fold increase was 1.36 and the viability was found to be 83.6%.
Regarding `CCOC(=O)C(NC(=O)c1ccc(F)cc1)(Nc1sc2c(c1C(N)=O)CCC2)C(F)(F)F` (configuration not stated), the fold increase was found to be 1.68 and the viability is 89.9%.
In the same order, the values of `CC1=CC(C)(C)Nc2ccc(OC(=O)C(Cc3ccccc3)N3C(=O)C4CCCCC4C3=O)cc21` (configuration not stated) are 1.32 and 97.2%.
For the compound `COCCCNC(=O)CC(=O)N/N=C\c1ccc(SC)cc1`, the fold increase was 1.32.
Take `CCc1cccc(CC)c1NC(=S)NCc1nc2ccccc2[nH]1`: the fold increase came to 1.39 and the viability is 102%.
Turning to `CC(C)c1nnc(N2C(=O)C(O)=C(C(=O)c3cccs3)C2c2ccccc2)s1` (configuration not stated), the fold increase worked out at 8.21 and the viability is 98.5%.
Consider `COc1cc(C(=O)NCCC(=O)NCCN2CCOCC2)cc(OC)c1OC`, for which the fold increase is 1.51 and the viability amounted to 99.5%.
In the same order, the values of `O=C(/C=C/c1ccco1)Nc1cccc2cccnc12` are 1.43 and 99.4%.
`CC(C)N1CC=C2C(C#N)=C(N)C(C#N)(C#N)[C@H](c3ccoc3)[C@H]2C1` registered a fold increase of 1.26.
For `CCN1CC=C2C(C#N)=C(N)C(C#N)(C#N)[C@H](c3ccoc3)[C@H]2C1`, the fold increase was 1.65 and the viability stood at 87.5%.
Taken in the same sequence, the figures for `O=C1C(=O)N(c2ccccc2)c2ccccc21` were 1.33 and 94.9%.
In the same order, the values of `OCCCc1nc2n(n1)C(c1cccs1)C=C(c1ccccc1)N2` (configuration not stated) are 2.69 and 87.5%.
Taken in the same sequence, the figures for `CN1CCc2c(sc3c2C(=O)NC(c2cn(Cc4ccccc4)c4ccccc24)N3)C1` (configuration not stated) were 1.34 and 83.8%.
For the compound `COc1cc(NC(=S)N2CCN(C(c3ccccc3)c3ccccc3)CC2)cc(OC)c1`, the fold increase is 1.5.
Consider `Cc1cccc(N=C2NC(=O)/C(=C/C=C/c3ccco3)S2)c1`, for which the fold increase came to 1.33 and the viability amounted to 69.8%.
In the same order, the values of `Cc1ccc2nc(SCC(=O)Nc3ccc4sc(C)nc4c3)c(C#N)cc2c1` are 2.49 and 91.4%.
Taken in the same sequence, the figures for `Cc1ccc(S(=O)(=O)N2CCC[C@H]2C(=O)OCC(=O)c2ccc3c(c2)NC(=O)CO3)cc1` were 1.46 and 96.1%.
As for `O=C(CCN1C(=O)/C(=C\c2cccs2)SC1=S)Nc1ccccn1`, the fold increase worked out at 1.39 and the viability is 92.4%.
In the same order, the values of `CC(C)CC1=NN2C(=N)/C(=C\c3coc4ccccc4c3=O)C(=O)N=C2S1` are 1.67 and 97.5%.
For `CCOC(=O)C1=C(CSc2nc(-c3ccccc3)ccc2C#N)OC(N)=C(C#N)C1c1ccccc1` (configuration not stated), the fold increase turned out to be 1.51 and the viability stood at 108%.
`Cc1cccc(S(=O)(=O)c2c(N)n(Cc3ccco3)c3nc4ccccc4nc23)c1`: the fold increase is 2.01 and the viability amounted to 90.4%.
Take `CN1\C(=C/C=C/C=C/C=[N+](C)C)C(C)(C)c2ccccc21`: the fold increase came out at 2.06 and the viability turned out to be 54.9%.
For the compound `CCN(CC)c1ccc(/C=C/C(=O)C2C(=O)C=C(C)OC2=O)cc1` (configuration not stated), the fold increase was determined as 8.97.
Consider `COc1ccc(S(=O)(=O)C(C#N)c2nc3ccccc3nc2N2CCCC(C)C2)cc1` (configuration not stated), for which the fold increase is 2.32 and the viability came to 96%.
In turn, `O=c1nc2c(O)cccn2c2c1c(=O)[nH]c1ccccc12` displayed a fold increase of 1.85.
On the same count and under the same terms, as for `CCOC(=O)c1cnc(SCc2nc(N)nc(Nc3ccccc3)n2)nc1N`, the figure is 1.01.
On to `Cc1nc(S/C(=C\c2ccc(-c3ccc(C(=O)O)c(Cl)c3)o2)C(=O)O)n[nH]1`, for which the fold increase amounted to 1.44 and the viability came to 97.8%.
Taken in the same sequence, the figures for `CCC1OC2(C)OC(=N)C1(C#N)C(C#N)(C#N)C2c1ccccc1` (configuration not stated) were 1.44 and 97.4%.
In the same order, the values of `CCc1ccc(CC2S/C(=C(\C#N)C(C)=O)NC2=O)cc1` (configuration not stated) are 1.46 and 87.5%.
Taken in the same sequence, the figures for `O=C(OCCN1C(=O)c2cccc3c(N4CCOCC4)ccc(c23)C1=O)c1cccc(Cl)c1` were 8.37 and 61.2%.
Consider `O=S(=O)(Nc1ccccc1)c1ccc2c(c1)CCO2`, for which the fold increase turned out to be 1.32.
`N#CC1=C(N)SC(N)=C(C#N)C1c1ccc(C(F)(F)F)cc1`: the fold increase was 1.86 and the viability came to 96.6%.
Take `CC[N+]1=C(C)C(C)(C)c2cc(C)ccc21`: the fold increase came to 1.32.
The same measure, in the same setting: as for `CCCOc1ccc(CC(=O)NNC(=S)Nc2ccccc2)cc1Br`, the figure is 1.34.
For `NC(=O)N/N=C/c1c(O)ccc2oc3c(c12)CCCC3`, the fold increase came to 1.37 and the viability came out at 107%.
In the same order, the values of `COc1cc(/C=C(\C#N)c2ccccn2)cc(OC)c1O` are 9.03 and 72%.
Taken in the same sequence, the figures for `COc1ccc(C)cc1NC(=O)COC(=O)c1ccc([N+](=O)[O-])o1` were 1.33 and 93.7%.
As for `COc1ccc(Cn2ccnc2CO)cc1[N+](=O)[O-]`, the fold increase amounted to 1.56 and the viability was determined as 92.4%.
As for `COc1ccc(-n2c(C)cc(/C=C3/SC(=S)N(C)C3=O)c2C)cc1`, the fold increase is 1.74 and the viability stood at 92.7%.
Taken in the same sequence, the figures for `CCOc1ccc(N2C(=O)S/C(=C\c3ccc(O)c(OC)c3)C2=O)cc1` were 1.73 and 96.3%.
Taken in the same sequence, the figures for `CN1C(=O)/C(=C/c2coc3ccc(O)cc3c2=O)SC1=S` were 1.45 and 102%.
In the same order, the values of `Cc1cc(SCC(=O)c2ccccc2)n2nc(C)nc2n1` are 1.49 and 89%.
With `CCN(CC)C1=CC2=CC(=C(C#N)C#N)CCC2CC1` (configuration not stated), the fold increase turned out to be 6.36 and the viability was 93.5%.
`CC(=O)Nc1nc2n(n1)C(c1ccc(F)cc1)C=C(c1ccccc1)N2` (configuration not stated): the fold increase worked out at 1.16 and the viability came to 97.6%.
In the same order, the values of `COC(=O)c1ccc(N)c(N=CC2=C(O)CC(C)(C)CC2=O)c1` are 2.04 and 90.5%.
Taken in the same sequence, the figures for `CCOC(=O)/C(C#N)=C\C=C1C=CN(C)C=C1` were 1.48 and 89%.
For `Cc1onc(-c2ccccc2)c1C(=O)c1ccccc1`, the fold increase turned out to be 1.38 and the viability was 95.6%.
Compound `Cc1ccc(S(=O)(=O)Oc2ccc(/C=C(/NC(=O)c3ccccc3)C(=O)Nc3ccccc3)cc2)cc1` showed a fold increase of 1.11.
Turning to `Cc1cc(S(=O)(=O)N2CCN(c3c(C)cccc3C)CC2)ccc1F`, the fold increase is 1.43 and the viability came out at 97.5%.
In the same order, the values of `COc1ccc2nc(NC(=O)CCN3C(=O)c4ccccc4C3=O)sc2c1` are 1.33 and 98.1%.
For `CN1/C(=C/C=C(C#N)C#N)C(C)(C)c2ccccc21`, the fold increase worked out at 3.76 and the viability was 101%.
As for `N#Cc1c(N)sc(=S)c2c1CCN(Cc1ccccc1)C2`, the fold increase stood at 1.4.
Regarding `COc1ccccc1-n1c(C)c2c(OC)cccc(=O)c2c1C`, the fold increase turned out to be 1.35 and the viability worked out at 102%.
In the same order, the values of `CN(C)S(=O)(=O)Nc1ccc2c(c1)OCO2` are 1.38 and 91.9%.
Compound `N=c1c2c(-c3ccccc3)c(-c3ccccc3)n(Cc3ccco3)c2ncn1CCO` gave a fold increase of 1.03.
On the same count and under the same terms, as for `Nc1nc(=S)[nH]c2c1C1(CCCC1)Cc1ccccc1-2`, the figure is 1.32; as for `COc1cccc2c1C(=O)C=C(C)C2=O`, 7.39.
In the case of `CC1CCc2nn(CC(=O)N3CCc4ccccc43)cc2C1` (configuration not stated), the fold increase worked out at 1.39 and the viability is 94.9%.
`Cc1c(Cl)cccc1NC(=S)NCCC(c1ccccc1)c1ccccc1` registered a fold increase of 1.29.
Regarding `CC(C)(C)c1ccc(C(=S)N2CCN(c3ccccc3)CC2)cc1`, the fold increase was determined as 1.37 and the viability was found to be 95%.
Taken in the same sequence, the figures for `N#C/C(=C\C1=C(N2CCOCC2)C(=C\c2ccccc2)/CC1)C(=O)Nc1ccccc1F` were 1.68 and 88.2%.
In the same order, the values of `COc1cccc(C2C(C#N)=C(N)Oc3c2oc(CO)cc3=O)c1` (configuration not stated) are 1.47 and 2.73%.
As for `O=c1[nH]c2ccccc2nc1/C=C(\O)c1cccs1`, the fold increase was determined as 3.59.
For the compound `Nc1c(C(=O)Nc2ccc(S(=O)(=O)N3CCCC3)cc2)sc2nc3ccc(OC(F)(F)F)cc3cc12`, the fold increase was 1.33 and the viability came out at 17.1%.
In the same order, the values of `O=C(N/N=C/c1cc([N+](=O)[O-])ccc1O)C12CC3CC(CC(C3)C1)C2` are 1.58 and 106%.
The compound `CCOc1ccc2nc(NC(=O)CCC(=O)c3cccs3)sc2c1` returned a fold increase of 1.23.
Regarding `c1coc(CSc2ncnc3c2oc2ccccc23)c1`, the fold increase came to 1.43 and the viability is 99.6%.
Turning to `COc1ccccc1N1C(C)=CC(=C(C#N)c2nc3ccccc3s2)C=C1C`, the fold increase amounted to 1.59.
Consider `Cn1cnnc1SCC(=O)Nc1cccc(S(=O)(=O)N2CCCCCC2)c1`, for which the fold increase is 1.34 and the viability came out at 91.6%.
Taken in the same sequence, the figures for `COc1ccccc1/C=C/C=C1\Oc2c(ccc(O)c2CN(C)C)C1=O` were 2.84 and 90.9%.
Taken in the same sequence, the figures for `N#CC(C#N)=C1C=C2C=C(N3CCOCC3)CCC2CC1` (configuration not stated) were 6.82 and 91.8%.
As for `O=C(c1cc2n(n1)C(C(F)(F)F)CC(c1ccco1)N2)N1CCc2ccccc2C1` (configuration not stated), the fold increase was 1.32 and the viability stood at 77.7%.
In the same order, the values of `Cn1c(=O)c2c(ncn2Cc2ccc(Cl)cc2)n(C)c1=O` are 1.74 and 83.6%.
In the same order, the values of `O=c1cc(N2CCCCC2)c(-c2ccccc2)nn1Cc1c(Cl)cccc1Cl` are 1.4 and 76.2%.
As for `CC(Cc1ccccc1)C(=O)Nc1ccccc1` (configuration not stated), the fold increase worked out at 1.32.
On to `Fc1ccc(-n2nnc(-c3ncc[nH]3)n2)cc1`, for which the fold increase amounted to 1.43 and the viability came to 91%.
For `O=c1/c(=C\c2ccc(O)cc2)sc2n1C(c1ccccc1)C(c1ccccc1)=NN=2` (configuration not stated), the fold increase is 1.15.
Consider `CC(=O)c1sc(N/N=C\c2ccccc2O)nc1C`, for which the fold increase was determined as 3.08 and the viability was 90.4%.
Taken in the same sequence, the figures for `CCN(C(C)=O)c1nc(CCl)cs1` were 1.38 and 100%.
In the case of `COc1ccc(/C=C2\CC/C(=C\c3ccc(OC)cc3OC)C2=O)c(OC)c1`, the fold increase came to 2.3.
Consider `CN(C)c1ccc(/C=C/C=C2/SC(=S)N(c3ccccc3)C2=O)cc1`, for which the fold increase amounted to 1.96 and the viability was determined as 78.2%.
Turning to `Cc1ccc(NC(=O)CSc2nnc(-c3cccnc3)n2-c2ccc(C)cc2)cc1`, the fold increase came out at 1.12.
`CCc1ccc(C(=O)NNc2ccc(C)c(Cl)c2)cc1`: the fold increase stood at 1.4 and the viability is 96.4%.
With `CCOC(=O)CC(=O)CSc1nc(-c2ccccc2)cc(-c2ccccc2)c1C#N`, the fold increase was 2.15 and the viability amounted to 98.7%.
`Cc1cc(C(F)(F)F)c(C#N)c(SCC(=O)Nc2nc3ccccc3s2)n1`: the fold increase worked out at 2.16.
As for `CCOC(=O)Cc1csc(/N=C/c2c(O)n(-c3ccc(C)cc3C)c(=O)c3ccccc23)n1`, the fold increase came out at 1.9 and the viability came out at 92.9%.
In the same order, the values of `CCn1nc(-c2ccccc2)c2nc3ccccc3nc21` are 2.4 and 98.1%.
Taken in the same sequence, the figures for `CCCN1C(=O)/C(=C\C=C2\N(CC)c3ccccc3C2(C)C)SC1=S` were 9.15 and 94.4%.
